Molecular target: the molecule itself
Experiment: native gel or EMSA; 5 pM 32P-labelled (GU)12 RNA with increasing NTD-RBD up to 10 uM; 20 mM BIS-TRIS pH 7.0, 150 mM LiCl, 1 mM TCEP, 1 mM EDTA; room temperature; third, slower species seen above the 2:1 protein-RNA complex

B1: TDP-43 NTD-RBD ([…]) (domain or fragment)
chain: not shown
notes: lacks the C-terminal domain; source: E. coli BL21(DE3) pLysS, purified (Ni-NTA, HiTrap Heparin)
  binding result: binds

Source: paper doi:10.1101/2025.11.26.690829, “TDP-43 controls RNA structure through high affinity lattice interactions” (bioRxiv, 2025)
